First the molecules themselves.
B1: glmS ribozyme (parent)
chain: AUAAAAGCGCCAGAACUACAGAAAUGUAGUUGACGAGGAGGAGGUUUAUCGAAUUUUCGGCGGAUGCCUCCAAA

Variants at the floor of the assay are shown more often than the library holds them.

Common to all, as to conditions: with glucosamine-6-phosphate
The variants in data set [1] derive from B1. The data set is described as follows: kcat; higher = faster cleavage; RNA array. The method in brief:
(§1)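 Barcoded ribozyme variants, transcribed in situ by E. coli RNA polymerase on sequenced MiSeq chips, were followed via a hybridised Cy3 probe at 37 °C. Glucosamine-6-phosphate ranged from 40 μM to 10 mM in HEPES/KCl/Mg(OAc)2 buffer. kobs came from decay fits to per-tile medians, and kcat and KM from weighted Michaelis–Menten fits.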

In data set [2] the parent is B1. The data set is described as follows: self-cleavage kobs at 2500 uM GlcN6P; higher = faster cleavage; RNA array. The gist of the method: as §1
Variants of B1 are the subject of data set [3]. The data set is described as follows: self-cleavage kobs at 40 uM GlcN6P; higher = faster cleavage; RNA array. The gist of the method: as §1
Data set [4] covers variants of B1. The data set is described as follows: self-cleavage kobs at 640 uM GlcN6P; higher = faster cleavage; RNA array. The method in brief:
as §1

In data set [5] the parent is B1. The data set is described as follows: self-cleavage kobs at 160 uM GlcN6P; higher = faster cleavage; RNA array. The method in brief:
as §1

Variants of B1 are the subject of data set [6]. The data set is described as follows: self-cleavage kobs at 10000 uM GlcN6P; higher = faster cleavage; RNA array. The method in brief:
as §1

With AUAAAAGCGCCAGAACUACAGAAAUGUAGUUGACGAGGAGGAGGUUUAUCGAAUUUUCUGCGAAUGCCUCCAAA, in the data set with glucosamine-6-phosphate [1], the kcat is less than 1e-05 s⁻¹. Besides, the “self-cleavage kobs at 2500 uM GlcN6P” value with glucosamine-6-phosphate [2] is less than 1e-05 s⁻¹.

Turning to AUAAAAGCGCCAGAACUACAGAAAUGUAGUUGACGAGGAGGUGGUUUAUCGAAUUUUCGGCGGUUGCCUCCAAA, the turnover number (kcat) in the data set with glucosamine-6-phosphate [1] is less than 1e-05 s⁻¹. Moreover, the “self-cleavage kobs at 40 uM GlcN6P” value in the data set with glucosamine-6-phosphate [3] was less than 1e-05 s⁻¹. For the same variant, in the data set with glucosamine-6-phosphate [4], the “self-cleavage kobs at 640 uM GlcN6P” value was less than 1e-05 s⁻¹. In addition, the “self-cleavage kobs at 160 uM GlcN6P” value with glucosamine-6-phosphate [5] is less than 1e-05 s⁻¹. In the data set with glucosamine-6-phosphate [6], the “self-cleavage kobs at 10000 uM GlcN6P” value is less than 1e-05 s⁻¹.

Turning to AUAAAAGCGCCAGAACUACAGAAAUGUAGUUGACGAGGAGGAGGUUUAUCGACUUUUCGGCCGAUGCCUCCAAA, the kcat with glucosamine-6-phosphate [1] is less than 1e-05 s⁻¹. For the same variant, the “self-cleavage kobs at 160 uM GlcN6P” value with glucosamine-6-phosphate [5] was less than 1e-05 s⁻¹.

Take AUAAAAGCGCCAGAACUACAGAAAUGUAGUUGACGAGGAGGAGGUUUAUCUAAUUAUCGGCGGAUGCCUCCAAA: the kcat with glucosamine-6-phosphate [1] was less than 1e-05 s⁻¹. For the same variant, in the data set with glucosamine-6-phosphate [3], the “self-cleavage kobs at 40 uM GlcN6P” value is less than 1e-05 s⁻¹. Besides, the “self-cleavage kobs at 640 uM GlcN6P” value in the data set with glucosamine-6-phosphate [4] was less than 1e-05 s⁻¹. Besides, the “self-cleavage kobs at 160 uM GlcN6P” value with glucosamine-6-phosphate [5] was less than 1e-05 s⁻¹.

For the variant AUAAAAGCGCCAGAACUACAGAAAUGUAGUUGACGAGGAGGAGGUUUAUCUAAUAUUCGGCGGAUGCCUCCAAA, in the data set with glucosamine-6-phosphate [1], the turnover number (kcat) is less than 1e-05 s⁻¹. For the same variant, the “self-cleavage kobs at 160 uM GlcN6P” value in the data set with glucosamine-6-phosphate [5] was less than 1e-05 s⁻¹.

For the variant AUAAAAGCGCCAGAACUACAGAAAUGUAGUUGAGGAGCAGGAGGUUUAUCGAAUUUUCGGCGGAUGCCUCCAAA, in the data set with glucosamine-6-phosphate [1], the turnover number (kcat) is less than 1e-05 s⁻¹.

AUAAAAGCGCCAGAACUACAGAAAUGUAGUUGACGAGGAGGAGGUUUAUCGAAUUUUCGCCGGAUGCCUCCAAA: the catalytic constant (kcat) with glucosamine-6-phosphate [1] was less than 1e-05 s⁻¹. Besides, the “self-cleavage kobs at 40 uM GlcN6P” value with glucosamine-6-phosphate [3] is less than 1e-05 s⁻¹. Besides, the “self-cleavage kobs at 160 uM GlcN6P” value with glucosamine-6-phosphate [5] was less than 1e-05 s⁻¹. The “self-cleavage kobs at 2500 uM GlcN6P” value with glucosamine-6-phosphate [2] is less than 1e-05 s⁻¹.

Turning to AUAAAAGCGCCAGAACUACAGAAAUGUAGUUGACGAUGAGGAGGUUUAUCGAUUUUUCGGCGGAUGCCUCCAAA, in the data set with glucosamine-6-phosphate [1], the kcat was less than 1e-05 s⁻¹. The “self-cleavage kobs at 40 uM GlcN6P” value in the data set with glucosamine-6-phosphate [3] is less than 1e-05 s⁻¹. The “self-cleavage kobs at 640 uM GlcN6P” value in the data set with glucosamine-6-phosphate [4] is less than 1e-05 s⁻¹.

On to AUAAAAGCGCCAGAACUACAGAAAUGUAGUUGACGAGGAGGAGGUUUAACGAAUUUUCGGGGGAUGCCUCCAAA, for which the kcat in the data set with glucosamine-6-phosphate [1] was less than 1e-05 s⁻¹.

AUAAAAGCGCCAGAACUACAGAAAUGUAGUUGACGAAGAGGAGGUUUAUCGAAUUUUCGGCGGAUGCGUCCAAA: the kcat with glucosamine-6-phosphate [1] was less than 1e-05 s⁻¹.

With AUAAAAGCGCCAGAACUACAGAAAUGUAGUUGACGAGACGGAGGUUUAUCGAAUUUUCGGCGGAUGCCUCCAAA, the kcat with glucosamine-6-phosphate [1] was less than 1e-05 s⁻¹.

Consider AUAAAAGCGCCAGAACUACAGAAAUGUAGUUGACGAGGAGGAGUUUUAUCGAAUUCUCGGCGGAUGCCUCCAAA, for which the kcat with glucosamine-6-phosphate [1] was less than 1e-05 s⁻¹. Moreover, in the data set with glucosamine-6-phosphate [3], the “self-cleavage kobs at 40 uM GlcN6P” value is less than 1e-05 s⁻¹. For the same variant, in the data set with glucosamine-6-phosphate [4], the “self-cleavage kobs at 640 uM GlcN6P” value is less than 1e-05 s⁻¹.

As to AUAAAAGCGCCAGAACUACAGAAAUGUAGUUGACGCGGAGGAGGUUUAUCGAAUUUUCGGCGGAUGCCUCUAAA, the turnover number (kcat) in the data set with glucosamine-6-phosphate [1] is less than 1e-05 s⁻¹.

In the case of AUAAAAGCGCCAGAACUACAGAAAUGUAGUUGACGAGAAGGAGGUUUAUCGAAUUUUCGGCGGAUGUCUCCAAA, the turnover number (kcat) in the data set with glucosamine-6-phosphate [1] is less than 1e-05 s⁻¹. Also, the “self-cleavage kobs at 10000 uM GlcN6P” value with glucosamine-6-phosphate [6] is less than 1e-05 s⁻¹.

Turning to AUAAAAGCGCCAGAACUACAGAAAUGUAGUUGACGAGUAGGAGGUUAAUCGAAUUUUCGGCGGAUGCCUCCAAA, the kcat with glucosamine-6-phosphate [1] was less than 1e-05 s⁻¹.

On to AUAAAAGCGCCAGAACUACAGAAAUGUAGUUGACGAGUAGGAGGUUUAUCGAAUUUUCGGCGGAUGCCUCUAAA, for which, in the data set with glucosamine-6-phosphate [1], the kcat was less than 1e-05 s⁻¹.

With AUAAAAGCGCCAGAACUACAGAAAUGUAGUUGACGAGCAGGAGGUUUAUCGAAUUUUCGGCGGAUGCUUCCAAA, the turnover number (kcat) with glucosamine-6-phosphate [1] was less than 1e-05 s⁻¹.

Take AUAAAAGCGCCAGAACUACAGAAAUGUAGUUGACGAGUAGGAGGUUUAUCGAAUUUCCGGCGGAUGCCUCCAAA: the kcat with glucosamine-6-phosphate [1] is less than 1e-05 s⁻¹. In addition, the “self-cleavage kobs at 40 uM GlcN6P” value with glucosamine-6-phosphate [3] was less than 1e-05 s⁻¹. Moreover, the “self-cleavage kobs at 10000 uM GlcN6P” value in the data set with glucosamine-6-phosphate [6] is less than 1e-05 s⁻¹.

(Values after the supplement of paper PMC7125110.)
